Measured values published in PubChem BioAssay AID1347417 (National Center for Advancing Translational Sciences (NCATS), 2020).
The whole screen tested about 120,000 compounds, of which about 5,300 (4.4%) were called active. The inconclusive results got no clear call from the source; some entries with a clear call stand among them for comparison. Calls follow the shape of the dose curve; as a rule, active = well fitted inhibition curve with a large enough effect; inconclusive = small, poorly fitted or top-dose-only effect; inactive = no such curve, though single readings can be large or run the other way. Potencies of inconclusive entries are doubtful fits and often do not repeat.

Assay: qHTS Primary assay for Inhibitors of Plasmodium falciparum Dd2 growth in vitro; also: nearly all actives have a fitted effect of over 65% in size;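 as to activity, negative = inhibition: plate controls were DMSO vehicle for no effect and reference drug for full effect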
Conditions: P. falciparum Dd2 growth, SYBR Green, 72 h; activity, negative = inhibition: at 28.9 µM (top of the series) unless noted; series mostly up to 28.9 µM
Summary of the method: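 Readout: SYBR Green fluorescence, 485 nm excitation, 535 nm emission, after ~16 h lysis at 37C. Before that, Dd2-infected red cells (2.5% hematocrit) grew 72 h with compound, 29 uM top final concentration.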
Potency is read from the fitted curve at half-maximal effect; tags tell the direction and shape of the fitted curve.

Row | SMILES | Potency | activity, negative = inhibition | outcome
1 | CCc1noc(-c2cn(C3CCN(C(=O)c4ccco4)CC3)nn2)n1 | inconclusive: 7.08 µM [inhibitor, partial curve, poor fit] | – | –
2 | Cc1nn2c(c1-c1cccnc1N1CCOCC1)N(Cc1ccccc1)CCC2 | inconclusive: 8.91 µM [inhibitor, partial curve, poor fit] | – | –
3 | Cc1nn(-c2ccc(C(F)(F)F)cc2)c(C)c1[C@@H]1C=C[C@@H](NC(=O)NC2CCCCC2)C1 | inconclusive: 15.8 µM [inhibitor, single point] | – | –
4 | Cn1nc(C2CCNCC2)n(C2CCCC2)c1=O | – | inactive: 12.2% | –
5 | COCc1nncn1C1CCN(S(=O)(=O)c2ccc(C)cc2C)CC1 | inconclusive: 11.2 µM [inhibitor, single point] | – | –
6 | CN(C)CC1(O)CCCN(Cc2cc3ccccc3n2C)C1 (stereo unspecified) | inconclusive: 1.58 µM [inhibitor, single point] | – | –
7 | CCN1CCN(c2cc3c(cc2F)c(=O)c(S(=O)(=O)c2ccc(OC)cc2)cn3CC)CC1 | inconclusive: 11.2 µM [inhibitor, single point] | – | –
8 | CC1(c2ccccc2)N(Cc2ccccc2)C(=O)OC12CCN(Cc1c[nH]c3ccccc13)CC2 (stereo unspecified) | inconclusive: 1.41 µM [inhibitor, partial curve, poor fit] | – | –
9 | COCCNC(=O)[C@@H]1C[C@@H](O)CN1C1CCN(C(=O)Cc2cccc(OC)c2)CC1 | – | inactive: -3.6% | –
10 | CS(=O)(=O)N1CCCC(C(=O)N2CCOCC2)CCNC(=O)CC1 (stereo unspecified) | – | inactive: 39.1% | –
11 | Cc1noc(C)c1CN1CC[C@@H]2OCC(=O)N(Cc3c[nH]c4ccccc34)[C@H]2CC1 | inconclusive: 31.6 µM [inhibitor, single point] | – | –
12 | O=C(Cc1ccccn1)N1CCC2(C1)C(=O)N(CCc1ccccc1)c1ccccc12 (stereo unspecified) | inconclusive: 10 µM [inhibitor, single point] | – | –
13 | O=C(CNC(=O)c1ccccc1F)OCc1cc(=O)n2ccsc2n1 | – | inactive: 56.8% | –
14 | Cc1nc(NCc2nc(C)c3c(n2)CCCC3)cc(C2CC(O)C2)n1 (stereo unspecified) | inconclusive: 6.31 µM [inhibitor, partial curve, poor fit] | – | –
15 | CCN1C(=O)Cc2ccccc2C1C(=O)NCc1ccc(C)cc1 (stereo unspecified) | – | inactive: -17.3% | –
16 | O=C(c1ccco1)N1CC(Oc2cccc(-c3nc(-c4ccccc4)no3)c2)C1 | inconclusive: 0.891 µM [inhibitor, full curve, poor fit] | – | –
17 | Cc1ccc(-n2cc(-c3ccccc3)nc2S(=O)(=O)CC(=O)Nc2ccc(F)cc2)cc1 | inconclusive: 1.78 µM [inhibitor, full curve, poor fit] | – | –
18 | Cn1cnnc1-c1nn(C)c2c1CN(C(=O)c1n[nH]c3ccccc13)CC2 | inconclusive: 7.08 µM [inhibitor, partial curve, poor fit] | – | –
19 | CCCCOc1ccc(-c2nc(C3CC(=O)N(C4CCCCC4)C3)no2)cc1 (stereo unspecified) | inconclusive: 0.631 µM [inhibitor, full curve] | – | –
20 | COCc1cc(C[C@@H]2C[C@H](NCc3ccccc3O)C2(C)C)no1 | inconclusive: 5.62 µM [inhibitor, single point] | – | –
21 | Cc1ccc(CN(C(=O)c2ccco2)c2ccc(CC(=O)NCC(C)C)cc2)cc1 | inconclusive: 3.98 µM [inhibitor, single point] | – | –
22 | Cc1ccc2c(C)c(C(=O)N3CCCn4cncc4C3)oc2c1 | – | inactive: -21.1% | –

Row | SMILES | Potency | activity, negative = inhibition | outcome
23 | CCN(CC)CCCNC(=O)c1cn(CC)c2ccc(S(=O)(=O)N3CCc4ccccc4C3)cc2c1=O | inconclusive: 10 µM [inhibitor, single point] | – | –
24 | CCc1ccc(CNC(=O)C2CCN(c3cc(C(F)(F)F)nc(C)n3)CC2)cc1 | inconclusive: 0.0708 µM [inhibitor, full curve, poor fit] | – | –
25 | CC(C)N1C(=O)C2(CCCC2)C1C(=O)Nc1ccc2c(c1)N(C)CCC2 (stereo unspecified) | inconclusive: 10 µM [inhibitor, single point] | – | –
26 | COc1cccc(-c2cc3c(=O)n(CCNC(=O)c4ccc(C#N)cc4)ccn3n2)c1 | inconclusive: 0.398 µM [inhibitor, partial curve, poor fit] | – | –
27 | COc1ccc(CNC(=O)C[C@@H]2C[C@@H](C(C)C)[C@H](CNC(=O)c3cccnc3)C=C2C)cc1 | inconclusive: 20 µM [inhibitor, single point] | – | –
28 | CCCN1CCC2(CCN([S+](=O)([O-])c3cccs3)CC2)Oc2ccccc21 | active: 11.2 µM | – | –
29 | Cn1ccnc1CN1CCN(CC2(O)CCNC2)CC1 (stereo unspecified) | – | inactive: -11.3% | –
30 | CC1CCN(C(=O)CSc2c(C(C)C)cnc3c2c(=O)n(C)c(=O)n3C)CC1 | inconclusive: 14.1 µM [inhibitor, single point] | – | –
31 | COC(=O)CC1Oc2ccccc2-n2cc(-c3ccccc3)nc21 (stereo unspecified) | inconclusive: 3.16 µM [inhibitor, single point] | – | –
32 | O=C(Nc1ccc(Cl)cc1)N1CCC(Oc2ncccc2C(=O)N2CCCCC2)C1 (stereo unspecified) | inconclusive: 14.1 µM [inhibitor, single point] | – | –
33 | Cc1nnc([C@@H]2CC(F)(F)CN2S(=O)(=O)c2ccc(F)cc2)o1 | – | inactive: 23.1% | –
34 | O=C(CCCn1c(=O)c2cccn2c2ccc(F)cc21)NCc1ccc(Cl)cc1 | inconclusive: 10 µM [inhibitor, single point] | – | –
35 | CCc1ccc(NC(=O)C(=O)NCC(c2cccnc2)N2CCN(Cc3ccccc3)CC2)cc1 (stereo unspecified) | inconclusive: 3.98 µM [inhibitor, partial curve, poor fit] | – | –
36 | CC(=O)N1CCC(N2C[C@@H]3C[C@H]2C(=O)N(Cc2ccc(OC(F)(F)F)cc2)c2ccccc2O3)CC1 | inconclusive: 11.2 µM [inhibitor, partial curve, poor fit] | – | –
37 | Cc1cc2c(cc1C)NC(CC(=O)Nc1ccccc1)C(=O)N2 (stereo unspecified) | – | – | inactive
38 | O=C(Cn1nc2c(cc1=O)CCCC2)NCC1CCC(C(=O)O)CC1 (stereo unspecified) | – | inactive: -2.48% | –
39 | Cc1ccc(O)c(NC(=O)c2ccc(Br)c(S(=O)(=O)N3CCCCC3)c2)c1 | active: 6.31 µM | – | –
40 | CCN(Cc1ccccc1)C(=O)Cn1cc(S(=O)(=O)Cc2cccc(Cl)c2)c2ccccc21 | inconclusive: 10 µM [inhibitor, single point] | – | –
41 | Fc1ccc2c(c1)nc1n2[C@@H](CNC2CCCCC2)COC1 | inconclusive: 10 µM [inhibitor, partial curve, poor fit] | – | –
42 | O=C(CCc1ccnc(N2CCCC2)c1)N1CCN(c2cccc(Cl)c2)CC1 | active: 5.01 µM | – | –
43 | CN(CCc1ccccn1)[C@@H]1[C@H](O)[C@H](CO)O[C@@H]1CNC(=O)Nc1ccc(OC(F)(F)F)cc1 | – | – | inactive
44 | COCCN1Cc2[nH]nc(-c3ccccc3OCc3ccccc3)c2CC1=O | inconclusive: 10 µM [inhibitor, partial curve, poor fit] | – | –

Row | SMILES | Potency | activity, negative = inhibition | outcome
45 | CCn1nccc1C(=O)N1C[C@@H](Oc2ccccc2)C[C@H]1C(=O)NCCOC | – | inactive: 26.8% | –
46 | COCC1CN(C(C)=O)CC12CCN(C(=O)CC1=CCCCC1)CC2 (stereo unspecified) | – | inactive: 6.43% | –
47 | c1cc(-c2ccco2)cc(-c2nc(C3CCOC3)no2)c1 (stereo unspecified) | active: 12.6 µM | – | –
48 | CCOc1ccccc1C(=O)N1CCC(N2C(=O)CCC2C(=O)NC(C)C)CC1 (stereo unspecified) | – | inactive: -8.67% | –
49 | O=C(NC1CCc2nnc(C3CC3)n2CC1)C1CC=CCC1 (stereo unspecified) | inconclusive: 0.447 µM [inhibitor, partial curve, poor fit] | – | –
50 | O=C(C1=NO[C@@H]2CN(c3ccc(F)c(Cl)c3)C[C@H]12)N1CCOCC1 | inconclusive: 5.01 µM [inhibitor, single point] | – | –
51 | Cc1cc(C(=O)N2CCCC(Cc3noc(-c4ccccn4)n3)C2)nn1C (stereo unspecified) | – | – | inactive
52 | Cc1c(Cl)cccc1NC(=O)c1noc2c1CCCC2 | inconclusive: 12.6 µM [inhibitor, partial curve, poor fit] | – | –
53 | O=C(c1ccsc1)N1CCCn2cc(-c3ccc4c(c3)OCO4)nc21 | – | – | inactive
54 | CCOC(=O)Cn1c(=O)n(CC2CCCO2)c2nc(-c3cccc(C)c3)nc(C(N)=O)c21 (stereo unspecified) | inconclusive: 11.2 µM [inhibitor, partial curve] | – | –
55 | CC1=C[C@@H](CN2CCOCC2)[C@H](C(C)C)C[C@H]1Cc1nnc(-c2ccc(N(C)C)cc2)o1 | inconclusive: 1.12 µM [inhibitor, partial curve, poor fit] | – | –
56 | CCCCN(CC)CCNC(=O)CN1C(=O)COc2ccc(S(=O)(=O)N3CCCC3)cc21 | inconclusive: 17.8 µM [inhibitor, single point] | – | –
57 | CN(C)C[C@@H]1CN(c2ccccn2)C[C@H]1NC(=O)Cc1ccsc1 | inconclusive: 5.62 µM [inhibitor, partial curve, poor fit] | – | –
58 | CC(=O)N1CCC(Cc2ccc(C(=O)NC3CCN(Cc4ccccc4)CC3)cc2)CC1 | inconclusive: 17.8 µM [inhibitor, single point] | – | –
59 | CCN1C(=O)C2CC3(CCN(C(=O)NCCCOC)CC3)CN2C1=O (stereo unspecified) | inconclusive: 3.98 µM [inhibitor, single point] | – | –
60 | COc1ccc(CCNC(=O)Cn2c(=O)nc(-c3ccccc3)c3ccccc32)cc1OC | – | – | inactive
61 | CN(C)CCCN(C(=O)c1ccc(Br)s1)c1nc2ccc(F)cc2s1 | inconclusive: 17.8 µM [inhibitor, single point] | – | –
62 | NCCC(=O)N1CCC(n2nccc2NC(=O)c2cccc(F)c2)CC1 | – | inactive: -9.13% | –
63 | Cc1cccc(NC(=O)N2CCCC(Cn3cnc4cccnc43)C2)c1C (stereo unspecified) | – | – | inactive
64 | COc1ccc(Cl)cc1C(=O)NCc1nnc2c(-c3nc(C(C)C)no3)cccn12 | active: 1.78 µM | – | –
65 | CCCSCCCNC(=O)C1CCCN(c2nn3cc(-c4ccc(OC)cc4)nc3s2)C1 (stereo unspecified) | inconclusive: 11.2 µM [inhibitor, single point] | – | –
66 | CCC(=O)N(C1CCOCC1)C1CCN(Cc2ccc(C(F)(F)F)cc2)CC1 | – | inactive: -23.8% | –
